{"source": "PubChem BioAssay AID1460", "about": "(National Center for Advancing Translational Sciences (NCATS), 2008)", "note": "Among all 270,000 compounds or so, about 5,800 (2.1%) were called active. Inconclusive results, whose numbers are uncertain, are shown with a selection of clear calls. The call rests on the fitted dose curve; in most records, active means well fitted inhibition curve with a large enough effect; inconclusive means small, poorly fitted or top-dose-only effect; inactive means flat fitted curve, though single readings scatter. Potencies of inconclusive entries are doubtful fits and often do not repeat. Potency means the concentration at half of the fitted maximal effect; tags describe the fitted curve by direction and shape.", "data": [{"target": "Microtubule-associated protein tau (Homo sapiens) (UniProt P10636)", "sequence (P10636 whole entry, looked up)": "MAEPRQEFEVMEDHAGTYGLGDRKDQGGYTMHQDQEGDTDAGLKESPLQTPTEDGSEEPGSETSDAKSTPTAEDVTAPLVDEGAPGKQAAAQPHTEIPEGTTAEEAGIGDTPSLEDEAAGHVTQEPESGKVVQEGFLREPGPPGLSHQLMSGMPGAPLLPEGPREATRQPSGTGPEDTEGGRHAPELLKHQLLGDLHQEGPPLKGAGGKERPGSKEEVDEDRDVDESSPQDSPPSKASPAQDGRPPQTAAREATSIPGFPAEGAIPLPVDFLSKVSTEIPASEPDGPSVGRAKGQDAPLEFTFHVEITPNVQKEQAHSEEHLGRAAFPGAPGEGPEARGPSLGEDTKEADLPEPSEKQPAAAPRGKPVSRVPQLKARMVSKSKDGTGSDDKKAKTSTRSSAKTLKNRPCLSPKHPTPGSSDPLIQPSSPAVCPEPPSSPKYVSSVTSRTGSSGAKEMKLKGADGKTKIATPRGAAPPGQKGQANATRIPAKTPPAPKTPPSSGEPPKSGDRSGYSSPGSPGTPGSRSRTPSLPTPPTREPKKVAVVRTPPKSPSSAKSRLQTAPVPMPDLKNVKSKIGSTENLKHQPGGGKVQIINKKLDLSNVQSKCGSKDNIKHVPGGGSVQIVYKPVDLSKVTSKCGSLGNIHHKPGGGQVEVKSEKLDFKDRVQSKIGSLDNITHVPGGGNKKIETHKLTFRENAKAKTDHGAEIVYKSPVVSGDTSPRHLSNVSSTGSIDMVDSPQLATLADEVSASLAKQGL", "experiment": "qHTS for Inhibitors of Tau Fibril Formation, Thioflavin T Binding; further: nearly all actives have a fitted effect of over 55% in size", "details": "recombinant tau K18 P301L, heparin-induced fibrillization, ThT fluorescence; series mostly up to 57.4 µM", "outline": "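Fibril formation assay: tau K18 P301L at 15 uM with trace Alexa 594 label, heparin inducer 20 uM, pH 7 sodium acetate buffer, 37 C for 6 hr; endpoint ThT signal.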", "values": [{"smiles": "CCOC(=S)SCc1cn2ccccc2n1", "Potency": "inconclusive: 15.8 µM [inhibitor, partial curve]"}, {"smiles": "CCOc1cc(/C=C2\\C(=O)N(c3ccc(C(N)=O)cc3)N=C2C)ccc1OC(=O)c1cccs1", "Potency": "inconclusive: 10 µM [inhibitor, partial curve]"}, {"smiles": "COc1ccc(/C=C2\\SC(=S)N(CCCC(=O)Nc3ccc(O)cc3)C2=O)cc1", "Potency": "inconclusive: 3.98 µM [inhibitor, full curve]"}, {"smiles": "CCOc1ccc(-c2csc(NC(=O)CSC3=NC(=O)CN3C(C)=O)n2)c2ccccc12", "Potency": "inconclusive: 12.6 µM [inhibitor, partial curve]"}, {"smiles": "Cc1cc(C=C2C(=O)c3ccccc3C2=O)c(C)n1-c1ccccc1", "Potency": "inconclusive: 5.01 µM [inhibitor, full curve]"}, {"smiles": "COc1ccc(-c2cnnc(N/N=C/c3ccc(O)c(OC)c3)n2)cc1", "Potency": "active: 1.78 µM"}, {"smiles": "CCNc1nn2ccccc2c1/C=C(\\C#N)C(=O)OCC", "Potency": "inconclusive: 44.7 µM [inhibitor, single point]"}, {"smiles": "CCCOc1ccc(/C=N/NC(=O)CSc2ccccn2)cc1OC", "Potency": "inconclusive: 35.5 µM [inhibitor, single point]"}, {"smiles": "Cc1noc(NS(=O)(=O)c2ccc(NC(=O)COc3ccccc3Br)cc2)c1C", "Potency": "inactive"}, {"smiles": "Clc1ccc(-n2nnnc2-c2ccccc2)cc1", "Potency": "inactive"}, {"smiles": "Clc1ccc(Nc2ncnc3ccc(Br)cc23)cc1", "Potency": "inactive"}, {"smiles": "CCOC(=O)c1ccc(NC(=O)CSc2nnc(-c3cccs3)n2C)cc1", "Potency": "inconclusive: 1.26 µM [inhibitor, full curve]"}, {"smiles": "O=C(Cc1c[nH]c2ccccc12)Nc1ccc(N2CCOCC2)cc1", "Potency": "inconclusive: 15.8 µM [inhibitor, partial curve]"}, {"smiles": "CCOC(=O)c1c(NC(=O)OC)sc2c1CCC2", "Potency": "inconclusive: 15.8 µM [inhibitor, partial curve, poor fit]"}, {"smiles": "COC(=O)c1ccc(S(=O)(=O)NCCSc2nnc3c4ccccc4n(C)c3n2)cc1", "Potency": "inconclusive: 17.8 µM [inhibitor, partial curve]"}, {"smiles": "CCSc1nc2c(sc3ccccc32)c(=O)n1C(C)C", "Potency": "inconclusive: 35.5 µM [inhibitor, single point]"}, {"smiles": "Cc1csc2nc(COC(=O)c3ccc(NC(=O)c4ccccc4Br)cc3)cc(=O)n12", "Potency": "inactive"}, {"smiles": "O=C1/C(=C/c2ccccn2)SC(=S)N1NS(=O)(=O)c1ccccc1", "Potency": "inconclusive: 11.2 µM [inhibitor, partial curve]"}, {"smiles": "COc1cc2c(cc1OC)CN(c1ccc([N+](=O)[O-])cc1Cl)CC2", "Potency": "active: 7.08 µM"}, {"smiles": "O=C(NCc1ccccc1)C1=C[C@@H](c2coc3ccccc3c2=O)C[C@@H](OCc2ccc(CO)cc2)O1", "Potency": "inconclusive: 0.355 µM [activator, single point]"}]}]}
